Test results taken from article PMC7819943, “Rice protein-binding microarrays: a tool to detect cis-acting elements near promoter regions in rice”.
This is one part of the list.

These sequences were tested against T1, OsWOX13 (Oryza sativa, UniProt Q5QMM3 1-267) (assay: protein-binding microarray (RPBM); PBS, 2% BSA, 51.3 ng/ul salmon testes DNA, 50 uM zinc acetate, 200 nM TF, 25 C, 1 h; high values mean tight binding). Details: protein: recombinant; tags: N-terminal polyhistidine and DsRed monomer fusion (pET32a); label: CyDye5-dUTP incorporated in the synthesized complementary strand; 3' TTTTT single-stranded linker to array surface; dsDNA, one strand shown.
T1 sequence: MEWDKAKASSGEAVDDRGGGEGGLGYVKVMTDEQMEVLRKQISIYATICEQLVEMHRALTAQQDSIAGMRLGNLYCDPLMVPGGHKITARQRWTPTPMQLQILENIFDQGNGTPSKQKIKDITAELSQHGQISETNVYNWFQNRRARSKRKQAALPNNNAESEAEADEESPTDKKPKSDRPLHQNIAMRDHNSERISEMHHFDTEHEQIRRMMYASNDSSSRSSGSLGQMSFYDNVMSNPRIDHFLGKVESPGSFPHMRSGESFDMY
Outline: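 The binding signal for each feature is its fluorescence intensity in arbitrary units. An Axon 4000B scanner was used to read a custom Agilent array that had been made double-stranded with Cy5-dUTP primer extension, blocked with 2% BSA, incubated at 25 °C for 1 h with 200 nM protein in PBS, 2% BSA, salmon testes DNA and 50 µM zinc acetate, and washed. The protein was an N-terminal polyhistidine–DsRed transcription factor fusion from E. coli BL21-CodonPlus, purified on Ni–NTA.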
For “CTAATTAGGTCCAGGACATTAAATGGGTTGATTACGTCACCGGAGTCACCTAGTGCAG”, the binding signal was 8450 fluorescence intensity (a.u.). With “TACTAATCATTTGTCGAAAGAAAAGTCTTTTGCTTCGCTGCGGAGTCACCTAGTGCAG” the binding signal was 7180 fluorescence intensity (a.u.). For “ATACTCTAGATAATAATTATTAATGTGTAATGATATGATGCGGAGTCACCTAGTGCAG”, the binding signal was 6700 fluorescence intensity (a.u.). “CGTAGATAATTACATAAACCTTTAAGCACAACATAGATAACGGAGTCACCTAGTGCAG” was tested, and the binding signal was 9750 fluorescence intensity (a.u.). For “TTTGTTGATTTGTTGCTATAGTACTTCAACAATACCGAGCCGGAGTCACCTAGTGCAG”, the binding signal was 32200 fluorescence intensity (a.u.). In the case of “TCCTAACTAAAATTCTCCTTAATTTGATATCACTCATATTCGGAGTCACCTAGTGCAG”, the binding signal is reported as 6210 fluorescence intensity (a.u.). “GTCATTTAAAATTATTAGGAAAATAGACAAAATATGATACCGGAGTCACCTAGTGCAG” was tested, and the binding signal was 4320 fluorescence intensity (a.u.). For “GCACCGTTGATGAAATTGCCGTTAGAATTTCGATCATCCCCGGAGTCACCTAGTGCAG”, the binding signal was 4810 fluorescence intensity (a.u.). For “ATCACGCTAACAAATGTAATTAAATATTGTTTCACTGAATCGGAGTCACCTAGTGCAG”, the binding signal was 5620 fluorescence intensity (a.u.). For “AAAAGAAGTTAATTATAATTAATTGTGATAAGAGGATAGACGGAGTCACCTAGTGCAG”, the binding signal was 29400 fluorescence intensity (a.u.). In the case of “CTAACTGTGATAATTAAACACTAATACTCTACTACTGGTACGGAGTCACCTAGTGCAG”, the binding signal is reported as 17900 fluorescence intensity (a.u.). For “CAGAACTAATTATTATATTTTATTGTGTGATATTATAGAGCGGAGTCACCTAGTGCAG”, the binding signal was 10400 fluorescence intensity (a.u.). In the case of “AAGTTTGATTGAAATTGGAACGATGTGACGGAAAAGTTGACGGAGTCACCTAGTGCAG”, the binding signal is reported as 35100 fluorescence intensity (a.u.). In the case of “AATTAATTGTCTGATCAGTGATCTTTATTAACTGTCGACGCGGAGTCACCTAGTGCAG”, the binding signal is reported as 28400 fluorescence intensity (a.u.). For “ATGTGATTATTTCGTCCTGCTGTAAACTTGGTGCAAGTGACGGAGTCACCTAGTGCAG”, the binding signal was 18600 fluorescence intensity (a.u.). In the case of “ACTTATCGCAAATTTATAATTTCAAATTTATCTTTTCGGACGGAGTCACCTAGTGCAG”, the binding signal is reported as 10300 fluorescence intensity (a.u.). In the case of “TATGATGTGACAAAATTTGAATGATTTTGTGACTTGGACCCGGAGTCACCTAGTGCAG”, the binding signal is reported as 30200 fluorescence intensity (a.u.). With “AATTTCAATCAAAATCCAAACTTTACACTGAACTAAACACCGGAGTCACCTAGTGCAG” the binding signal was 17700 fluorescence intensity (a.u.). “TAACTAACAAATTGAAAATGAAATTTATATCTGTAGTCAACGGAGTCACCTAGTGCAG” was tested, and the binding signal was 18400 fluorescence intensity (a.u.). In the case of “TTGGATTGGTTTCTTTCTGCTCTGTTGCAGCTCCGTTGTCCGGAGTCACCTAGTGCAG”, the binding signal is reported as 9000 fluorescence intensity (a.u.). In the case of “GTTGATGTCGATCGATTGACGGGACGTCGACATCAAGTCGCGGAGTCACCTAGTGCAG”, the binding signal is reported as 10700 fluorescence intensity (a.u.). “TTTATAAATTATGTTTCATCTGTAAATATGACATTTCACACGGAGTCACCTAGTGCAG” was tested, and the binding signal was 12000 fluorescence intensity (a.u.). In the case of “GCAGATGATTATTACGCCAAGGAGGGCAGCAACTATGGAACGGAGTCACCTAGTGCAG”, the binding signal is reported as 11800 fluorescence intensity (a.u.). For “CGATTCGAAACGGATTGATTGCCCCTGCTTTATTATCGAACGGAGTCACCTAGTGCAG”, the binding signal was 18900 fluorescence intensity (a.u.). “ATATAATAGATAGATGGTGGATCTAGAGCATTCTATCAAGCGGAGTCACCTAGTGCAG” was tested, and the binding signal was 21400 fluorescence intensity (a.u.). For “CTATTAGATTAGCTATAAATGAATTGGAGCTAGCAGTTGGCGGAGTCACCTAGTGCAG”, the binding signal was 28100 fluorescence intensity (a.u.). In the case of “AACCAAATTAATCTATCATTATAACATGTTTACTGTAGCACGGAGTCACCTAGTGCAG”, the binding signal is reported as 22100 fluorescence intensity (a.u.). In the case of “TCGGACATAATTTGACAGTTACGTTCATGTGACCGACGGTCGGAGTCACCTAGTGCAG”, the binding signal is reported as 19400 fluorescence intensity (a.u.). With “GAGGATTTCTTAGTTGATTGCTACCTATACTCCGGAACAGCGGAGTCACCTAGTGCAG” the binding signal was 19300 fluorescence intensity (a.u.). “ACCTACAATTTAGATTGATTGATCATTCAATCAAATACATCGGAGTCACCTAGTGCAG” was tested, and the binding signal was 48300 fluorescence intensity (a.u.). With “CCAAATCAATCAAATCGCATTCCACCAATTCTCCACTCTCCGGAGTCACCTAGTGCAG” the binding signal was 27300 fluorescence intensity (a.u.). With “ACTAATTGACTACTCCCTGAATTTAAAGTTGATGGTCAGTCGGAGTCACCTAGTGCAG” the binding signal was 61100 fluorescence intensity (a.u.). With “TAATAATCACTGACTCCTGCTATTCTCGTCAACCTATGTTCGGAGTCACCTAGTGCAG” the binding signal was 4240 fluorescence intensity (a.u.). “TCTCTAACACACCCATCAATCATGTATCCCCAGCACAAATCGGAGTCACCTAGTGCAG” was tested, and the binding signal was 6780 fluorescence intensity (a.u.). With “CTACTGATTTCTTAAAACCGGCGAAGAGTTGCAGATTCAGCGGAGTCACCTAGTGCAG” the binding signal was 4770 fluorescence intensity (a.u.). For “GTACTAGTAATTTTATCATATGTCATCACGTCTATAATGTCGGAGTCACCTAGTGCAG”, the binding signal was 4350 fluorescence intensity (a.u.). With “TGAATTTGACATGATAGAAGTAGTGGTTTTGCTGAAAACGCGGAGTCACCTAGTGCAG” the binding signal was 4820 fluorescence intensity (a.u.). With “ACTCCACTCGCTCGACGGCTGATTGCCTGCCTGCCTCCCCCGGAGTCACCTAGTGCAG” the binding signal was 4290 fluorescence intensity (a.u.). With “ACTCCTATCAATCCGAAAATTCCCCATTTCTATTCCCCTGCGGAGTCACCTAGTGCAG” the binding signal was 7740 fluorescence intensity (a.u.). In the case of “ATTATGATTTATTCCCACACACCCTGTACGTAGATGATGCCGGAGTCACCTAGTGCAG”, the binding signal is reported as 17300 fluorescence intensity (a.u.). “TATTAATTGAGTGAGATTTGGGGTATTCAGTCGACTGGCACGGAGTCACCTAGTGCAG” was tested, and the binding signal was 54900 fluorescence intensity (a.u.). For “ATCTTAATTAGTTAGTTGATGATATGAATAAATTAGAGGTCGGAGTCACCTAGTGCAG”, the binding signal was 44300 fluorescence intensity (a.u.). For “AGAAATTTGTTACTTTGCTTTCGTCTAACCTGTCATTAGTCGGAGTCACCTAGTGCAG”, the binding signal was 3340 fluorescence intensity (a.u.). “TGCCTTTAGATTGCCCTTTCCCTTTACATCCATGCAGAAACGGAGTCACCTAGTGCAG” was tested, and the binding signal was 4250 fluorescence intensity (a.u.). With “TTTGAATTGAGGGGTAAATTGAACGGTTTTAGAAGTTGAGCGGAGTCACCTAGTGCAG” the binding signal was 19300 fluorescence intensity (a.u.). “TGCATATTATACTAATCAAGCCTTGTCGAGCTATTCGAGCCGGAGTCACCTAGTGCAG” was tested, and the binding signal was 5980 fluorescence intensity (a.u.). In the case of “AGTTATTGATAACATAAGCCTTAAAAGTTCGCCCTAACCTCGGAGTCACCTAGTGCAG”, the binding signal is reported as 4600 fluorescence intensity (a.u.). “GTGAAATAATTGACAGTGCTGAGAATTGGGTCAAGGTGTTCGGAGTCACCTAGTGCAG” was tested, and the binding signal was 39600 fluorescence intensity (a.u.). With “GAGAATAATCATGATGGACTGGGTTTAACGACAAGAAGCACGGAGTCACCTAGTGCAG” the binding signal was 9670 fluorescence intensity (a.u.). In the case of “GTTTGATTTATTATTGTAATTATGGCAAGCCACATTTTGTCGGAGTCACCTAGTGCAG”, the binding signal is reported as 38100 fluorescence intensity (a.u.). For “CTTGACCATTTCTGACAGATGCATATTTTGGATTTCCTGCCGGAGTCACCTAGTGCAG”, the binding signal was 6860 fluorescence intensity (a.u.). With “GCCTTGCAACTGATTGATTATTGCTCGTTCCTTTATGTTTCGGAGTCACCTAGTGCAG” the binding signal was 40000 fluorescence intensity (a.u.). “GCAATTACAAATTTACCACTATTTTGAATCGTTATTGCAACGGAGTCACCTAGTGCAG” was tested, and the binding signal was 6770 fluorescence intensity (a.u.). With “ATGGAGTCAATTAATCCATGTTGTAACAATGTCAATGTGACGGAGTCACCTAGTGCAG” the binding signal was 6640 fluorescence intensity (a.u.).
